The test system of the assay is NCI-H322M lung. Put plainly: NCI tumour cell line growth inhibition, 48 h.

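Briefly, cells in 96-well plates were exposed to five compound concentrations for 48 h, and endpoints were estimated by linear interpolation. At the GI50, growth is halved. TGI is the concentration that stops growth completely.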

In turn, `CC1=Nc2ccccc2S/C1=C(/C)NNC(=O)C(N)=O` gave a TGI above 100 µM.
For `C=CCC[CH2][Sn]([c]1ccccc1)([c]1ccccc1)[c]1ccccc1`, the GI50 was 1.56 µM and the TGI is 3.29 µM.
`O=Nc1c(O)cc(Nc2ccc(Br)cc2)c2ccccc12`: the TGI worked out at 3.86 µM.
Still for that read-out and setting: then `CN(C)CCCNC(=O)CCNC(=O)c1cc(NC(=O)c2cc(NC(=O)c3cc(NC(=O)c4nc(NC(=O)CCCNC(=O)c5cc(NC(=O)c6cc(NC(=O)c7cc(NC(=O)c8nccn8C)cn7C)cn6C)cn5C)cn4C)cn3C)cn2C)cn1C`, with above 100 µM.
On to `Cc1cccc2nc3c(C(=O)NCCN(C)C)cccc3cc12`, for which the TGI was 4.66 µM.
Same read-out and setting: then `CCOC(=O)C(=[N+]=[N-])C(=O)C1(C(=O)OCC)CCN(C(=O)c2ccccc2)C1=O` (stereo not drawn), with above 100 µM.
Consider `CC(C)c1cc(-c2n[nH]c(=O)n2-c2ccc3c(ccn3C)c2)c(O)cc1O`, for which the GI50 was 5.26 µM and the TGI worked out at 99.5 µM.
In turn, `CCS(=O)(=O)Nc1ccc(Nc2c3ccccc3nc3ccccc23)c(OC)c1` returned a TGI of 17 µM.
On the same count and under the same terms, then `Nn1c(NNC(=O)C(=O)Nc2cc(Cl)c(Cl)cc2Cl)n[nH]c1=S`, with above 100 µM; and `COC(=O)C1=CC2CCCC1(O)C(C(C)=O)C2` (stereo not drawn), with above 100 µM.
Regarding `COc1ccc(/C=C2\CCCC3=C2N=C2SC(C)=NN2C3c2ccc(OC)c(OC)c2)cc1OC` (stereo not drawn), the GI50 was 45.1 µM and the TGI is above 100 µM.
The matching figures for `COC(C(=O)[O][Ge]([CH3])([CH3])[CH3])c1ccccc1` (stereo not drawn): above 100 µM and above 100 µM.
In turn, `CC12CCC(CC1=O)C2(C)CCC(N)=O` (stereo not drawn) showed a TGI above 100 µM.
On the same count and under the same terms, then `Cc1[nH]ccc2c1[nH]c1cc(=O)ccc12`, with above 100 µM.
As for `O=C(NCCCCCCNC(=O)n1cc(F)c(=O)[nH]c1=O)NCCCOCCOCCOCCOCCOCCOCCOCCOCCOCCOCCOCCOCCOCCOCCOCCOCCOCCOCCOCCOCCOCCCNC(=O)C(O)C(O)C(O)C(O)CO` (stereo not drawn), the TGI is above 100 µM.
On the same count and under the same terms, then `Nc1ccn(CCNCCn2cnc3nc(N)[nH]c(=O)c32)c(=O)n1`, with above 100 µM.
On the same count and under the same terms, then `O=S(=O)(O)c1ccc2cccc(N=Nc3c(O)ccc4ccccc34)c2c1`, with above 100 µM; and `CC1=C(C)C(=O)c2c(cc3ccccn23)C1=O`, with 52 µM.
With `Cc1ccc(-c2cn3ccnc3c(-c3ccc(Cl)cc3)n2)cc1`, the GI50 is 2.26 µM and the TGI was above 79.3 µM.
In the same order, the values of `CCN(CC)CC(C)Nc1ccc([N+](=O)[O-])c2sc3ccccc3c(=O)c12` (stereo not drawn) are 1.84 µM and 8.62 µM.
In the same order, the values of `NCCn1c(=O)[nH]c(=O)[nH]c1=S` are above 100 µM and above 100 µM.
For the compound `CCOC(=O)C1=[N+]([O-])OC2=C(O)CCCC21` (stereo not drawn), the TGI was above 100 µM.
Regarding `S=c1sc2c(s1)SCCCCSCCCCSc1sc(=S)sc1SCCCCSCCCCS2`, the TGI was above 100 µM.
As for `COc1cc(OC(C)=O)cc2c(OC(C)=O)ccc(OC(C)=O)c12`, the TGI was above 100 µM.
For `O=C(/C=C/c1ccccc1)c1cc(Br)ccc1O`, the TGI was determined as 35.6 µM.
Same read-out and setting: then `CC(C)[C@H]1CO[C@]2(C)[C@@H]3CN(Cc4ccccc4)C[C@@H]3C(=O)N12`, with above 100 µM.
On to `CC#C[C@]1(O)CC[C@H]2[C@@H]3CCC4=CC(=O)CCC4=C3[C@@H](c3ccc4c(c3)OCO4)C[C@@]21C`, for which the GI50 was 122 µM and the TGI was 862 µM.
As to `CCOC(CN=C=S)OCC`, the TGI is above 10 µM.
Compound `COC(O)C(=O)c1c2c(cc3c1CC1(Cc4cc5c(cc4C1)CCC5)C3)CCC2` (stereo not drawn) showed a TGI of 28.5 µM.
`CCN(CC)CCCNc1nc(=O)[nH]c(C)c1C(=O)Nc1cccc2cc3ccccc3cc12` yielded a TGI above 100 µM.
On to `COc1cccc(-c2c(C#N)c(N)nc3c2CCS(=O)(=O)c2ccc(C)cc2-3)c1`, for which the TGI is above 100 µM.
`O=c1cc(-c2ccccc2)[nH]c2ccccc12` showed a TGI above 100 µM.
On the same count and under the same terms, then `CN1CC[C@@]2(c3cccc(O)c3)CC(=O)/C(=C/c3ccccc3)[C@H]1C2`, with 34.1 µM.
Still for that read-out and setting: then `ONc1ncnc2nc[nH]c12`, with above 100 µM; and `Cc1nc2cccc(F)c2c(=O)n1C1CCCCNC1=O` (stereo not drawn), with above 10 µM.
Still for that read-out and setting: then `O=C(COc1ccc2c(=O)cc(-c3ccccc3)oc2c1)N1CCN(c2ccccc2)CC1`, with above 100 µM; and `CC(C)(Br)C(Br)CCC(C)(Br)C(Br)CO` (stereo not drawn), with above 10 µM.
Take `CCCNC(=O)c1cc(NC(=O)c2cc(NC(=O)/C=C/c3ccccc3)c(OC)c(OC)c2)c(OC)c(OC)c1`: the TGI turned out to be 31.3 µM.
Same read-out and setting: then `COC12OC3(C4OC41)C(C(=O)O[C@H]3CO[Si](C)(C)C(C)(C)C)C2C(=O)Oc1ccccc1` (stereo partly drawn), with above 100 µM.
Take `O=C(CCCCCCC(=O)Nc1ccc(N(CCCl)CCCl)cc1)NO`: the GI50 is 3.23 µM and the TGI stood at 20.7 µM.
Compound `O=c1cc(NNc2ccccc2)[nH]c(=S)[nH]1` showed a TGI above 100 µM.
Same read-out and setting: then `COc1ccc2nc(N/N=C/C(C)=N/Nc3cc(C)c4cc(OC)ccc4n3)cc(C)c2c1`, with 47.7 µM; and `COc1cc(C=C2C(C)=NN(c3cccc(Cl)c3)C23SCC(=O)N3c2nc3ccccc3s2)ccc1O` (stereo not drawn), with above 100 µM; and `CCCC1(NC(=O)C(F)(F)F)CC(OC)OC2COC(c3ccccc3)OC21` (stereo not drawn), with above 100 µM.
On to `O=C(C1OC1c1ccc(O)cc1)C12CC3CC(CC(C3)C1)C2` (stereo not drawn), for which the TGI was above 100 µM.
Still for that read-out and setting: then `N#C/C(=C\c1ccc(O)c(O)c1)C(N)=S`, with above 100 µM.
Turning to `CCC1C(C#N)=C(N)OC2=C1C(=O)CC(C)(C)C2` (stereo not drawn), the TGI was above 100 µM.
As for `N#Cc1c(N2CCCC2)[nH]c(=O)c(C(c2c(Cl)cccc2Cl)c2c(O)c(C#N)c(N3CCCC3)[nH]c2=O)c1O`, the GI50 was 26.3 µM and the TGI is 44.6 µM.
As for `N=c1oc2cc(O)ccc2cc1C(=O)NCc1ccccc1`, the TGI is above 100 µM.
On the same count and under the same terms, then `NC1CC(=O)c2sc(I)cc21` (stereo not drawn), with above 100 µM; and `c1ccc([P+](Cc2ccc(C[P+](c3ccccc3)(c3ccccc3)c3ccccc3)cc2)(c2ccccc2)c2ccccc2)cc1`, with above 100 µM.
Still for that read-out and setting: then `COCCN(C(C)=O)C1CCC2(SCCS2)c2[nH]c3ccccc3c21` (stereo not drawn), with above 100 µM; and `NC(=O)NNc1nc2ccccc2c(=O)n1NC(=O)C(=O)Nc1ccc(Cl)cc1Cl`, with above 100 µM; and `CCOC(=O)c1c2c(n3ccccc13)C(=O)c1ccccc1C2=O`, with 7.22 µM.
Same read-out and setting: then `O=[N+]([O-])c1ccc(-c2csc3nc(-c4ccccc4)nn23)cc1`, with above 100 µM.
`O=C1C=C2C(=NC34CCCCC3C(c3ccccc3)C3=C(c5ccccc5CC3)N24)c2ccccc21` (stereo not drawn) returned a TGI above 10 µM.
Consider `COc1cccc2c1c(C(=O)C(=O)Nc1cc(C)no1)cn2Cc1ccc(F)cc1`, for which the GI50 was 27.2 µM and the TGI was above 100 µM.
In turn, `N#CC12C(=O)N3C(=NC(c4ccccc4)NC3c3ccccc3)C1(C#N)C(c1ccccc1)NC1=C2CCC1` (stereo not drawn) displayed a TGI above 100 µM.
Still for that read-out and setting: then `[N-]=[N+]=Nc1c(C=O)c(=O)n2c3c(cccc13)CCC2`, with 31.5 µM.
Same read-out and setting: then `COc1ccc(/C=C(/C#N)C(N)=O)cc1OC`, with above 100 µM.
`O=c1c2nn3c(=O)n(-c4ccccc4)c(=O)c3nn2c(=O)n1-c1ccccc1` registered a TGI above 100 µM.
`CC[C@H]1C=CCC[C@@]2(C[C@@H]3CC[C@@H]4[C@H](C(=O)OCCCCCCCCCCCCCCCC(=O)O)[C@]5(CCC[C@@H](C)O5)NC(=[N+]34)N2)O1` gave a TGI of 8.06 µM.
With `CC1SC(c2ccccc2)N(CCc2cccs2)C1=O` (stereo not drawn), the GI50 is 9.01 µM and the TGI came out at 29.5 µM.
In turn, `N=c1oc2c(Cl)cc(Cl)cc2cc1C(=O)Nc1cccc2ccccc12` displayed a TGI of 56.3 µM.
On the same count and under the same terms, then `C[C@@H]1C[C@H]2CC[C@H](O2)[C@H](C)C(=O)O[C@@H](C)C[C@@H]2CC[C@@H](O2)[C@@H](C)C(=O)O[C@H](C)C[C@H]2CC[C@H](O2)[C@H](C)C(=O)O[C@@H](C)C[C@@H]2CC[C@@H](O2)[C@@H](C)C(=O)O1`, with above 30.6 µM.
With `Cc1cc(N(CCCl)CCCl)ccc1C=Nc1ccc(-c2csc(Cc3ccccc3)n2)cc1`, the GI50 was 20.8 µM and the TGI was above 100 µM.
The compound `CC1=C(C(=O)O)N2C(=O)[C@@H](NC(=O)C(c3ccc(O)cc3)N3CSC(=S)N(C(C)C)C3)C2SC1` (stereo partly drawn) displayed a TGI above 100 µM.
Turning to `CCCCCCCCN=C(N)c1ccc(N2CCN(c3ccc(C(N)=NCCCCCCCC)cc3)CC2)cc1`, the GI50 is 1.44 µM and the TGI was determined as 4.33 µM.
`CC(=O)Nc1cc([As](=O)(O)O)ccc1O` came in with a TGI above 100 µM.
On the same count and under the same terms, then `COc1cc(OC)c2c(c1)C(=O)C(CC(C)O)=CC2=O` (stereo not drawn), with 31.3 µM.
Still for that read-out and setting: then `COc1cc(Cn2c3ccccc3c3cc(C)c4c(c32)C=CC(C)(CCC=C(C)C)O4)cc2c1[nH]c1ccccc12` (stereo not drawn), with above 100 µM.
The same measure, in the same setting: then `CCOC(=O)N/N=C(/OCC)c1ccccc1`, with above 100 µM; and `O=c1/c(=C/c2ccccc2F)sc2nc3ccccc3n12`, with above 100 µM.
With `CC[C@@H](C(=O)O)C1CC[C@H](C)C([C@@H](C)[C@H](O)[C@H](C)C(=O)[C@H](CC)C2O[C@]3(C=C[C@@H](O)[C@]4(CC[C@@](C)(C5CC[C@](O)(CC)[C@H](C)O5)O4)O3)[C@H](C)C[C@@H]2C)O1` (stereo partly drawn), the GI50 was 1.99 µM and the TGI stood at 14.4 µM.
`CS(=O)(=O)N1CC(CCl)c2ccc([N+](=O)[O-])cc21` (stereo not drawn) yielded a TGI above 100 µM.
Consider `COc1ccc(-c2nn3c(-c4cc(F)c(Cl)cc4Cl)nnc3s2)cc1`, for which the GI50 was 77.8 µM and the TGI is above 100 µM.
In turn, `C/C(=N\NS(=O)(=O)c1ccccc1)c1ccc(Cl)c(Cl)c1` came in with a TGI above 100 µM.
On the same count and under the same terms, then `Cc1c(/C=N/NC(=O)c2cc(Br)cc(Br)c2O)c(=O)n(-c2ccccc2)n1C`, with above 100 µM; and `CCN(CC)CCC(=O)c1ccc(Oc2ccc(Cl)cc2)cc1`, with 31.5 µM.
For `COc1ccc(OC)c(/C=C2\SC(=S)NC2=O)c1`, the GI50 was 36.3 µM and the TGI was 92.7 µM.
For the compound `CCCC(=O)OC1C(C(O)CO)OC2OC(C)(C)OC21` (stereo not drawn), the TGI is above 100 µM.
In the case of `CCc1nccc2c1nc(-c1nonc1N)n2CC`, the GI50 is 16.5 µM and the TGI was above 25 µM.
For `CCSCCC(N)C(=O)O` (stereo not drawn), the TGI is above 100 µM.
Still for that read-out and setting: then `Cc1ccc(C(=O)c2nnc(C(=O)c3ccc(C)cc3)nn2)cc1`, with above 100 µM; and `CC(=O)CCCCC(=O)Nc1ccc(CC(NC(=O)OC(C)(C)C)C(=O)NCC(=O)OCc2ccccc2)cc1` (stereo not drawn), with 78.3 µM.

The values are drawn from PubChem BioAssay (NCI).
